Experiment [1] deals with catalytic domain of human DNMT3B (3B-CD, residues 571–853) (human, UniProt Q9UBC3 571-853). As to the kind of experiment: SEC.
Experiment [2] deals with catalytic domain of human DNMT3B, Q772R mutant (human, UniProt Q9UBC3 571-853, Q772R). As to the kind of experiment: crystal structure.

As a reminder, the stoichiometry N is a count of units in the complex or per binding partner.

B1: catalytic domain of human DNMT3L (3L-CD, […]) (domain or fragment)
chain: not shown
With B1, the “stoichiometry N” value in experiment [1] was found to be 1. Moreover, the binding result in experiment [2] is “binds”.

Values taken from PMC7144912 (Nucleic Acids Research, 2020).
